# Assay results as given in PubChem BioAssay AID624417 (National Center for Advancing Translational Sciences (NCATS), 2012).
# Several values for one entry are separate records, joined by “and”; a condition that tells them apart may be missing. Equal values may be shown once. Out of some 410,000 compounds screened, about 6,400 (1.6%) were called active. Inconclusive results, whose numbers are uncertain, are shown with a selection of clear calls. The call rests on the fitted dose curve; in most records, active means well fitted inhibition curve with a large enough effect; inconclusive means small, poorly fitted or top-dose-only effect; inactive means no such curve, though single readings can be large or run the other way. Potencies beside an inconclusive call are fits to weak or partial responses and may not hold up.
# Biological target: Glucagon-like peptide 1 receptor (Homo sapiens) (UniProt P43220)
# Assay: qHTS of GLP-1 Receptor Inverse Agonists (Inhibition Mode); further: nearly all actives have a fitted effect of over 55% in size
# Settings: HEK293 GLP-1R CRE-luciferase, luminescence, 24 h, GLP-1R form is constitutively active; series mostly up to 38.3 µM
# How it was run: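 Seeding at 200 cells/uL, 12 h culture, 24 hr compound treatment, then luciferase reagent and a luminescence read; cells are HEK293 stably expressing a constitutively active GLP-1R plus cAMP-responsive luciferase.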
# Potency means the concentration at half of the fitted maximal effect; tags describe the fitted curve by direction and shape.
# Sequence of UniProt P43220 (P43220 whole entry, looked up): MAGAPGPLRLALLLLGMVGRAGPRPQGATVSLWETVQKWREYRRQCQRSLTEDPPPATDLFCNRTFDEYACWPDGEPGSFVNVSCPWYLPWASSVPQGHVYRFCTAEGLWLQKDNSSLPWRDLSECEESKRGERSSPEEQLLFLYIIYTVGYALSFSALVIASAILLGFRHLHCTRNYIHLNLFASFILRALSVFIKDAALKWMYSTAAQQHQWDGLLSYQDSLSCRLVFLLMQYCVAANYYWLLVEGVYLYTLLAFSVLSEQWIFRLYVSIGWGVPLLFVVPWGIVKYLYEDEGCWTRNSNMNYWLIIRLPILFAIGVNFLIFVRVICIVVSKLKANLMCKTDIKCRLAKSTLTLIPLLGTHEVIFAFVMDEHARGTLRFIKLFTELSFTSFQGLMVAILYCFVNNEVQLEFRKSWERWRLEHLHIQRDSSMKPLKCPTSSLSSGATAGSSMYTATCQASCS
row,Structure (SMILES),Potency
1,O=C(/C(=C(\[O-])c1ccccc1)[n+]1ccc2ccccc2c1)c1ccc([N+](=O)[O-])cc1,inactive
2,Cn1c(C=O)c(-c2ccc3c(c2)OCCO3)c2ccccc21,"inconclusive: 14.1 µM [inhibitor, single point]"
3,CCCCc1ccc(NS(=O)(=O)N(C)C)cc1,"inconclusive: 11.2 µM [inhibitor, single point]"
4,Cc1ccc(S(=O)(=O)N2CCCC(C(=O)NCCc3ccc(Cl)cc3)C2)cc1 (configuration not stated),"inconclusive: 8.91 µM [inhibitor, partial curve, poor fit]"
5,S=C(Nc1ccccc1)Nc1cccc(Cl)c1Cl,inactive
6,COc1ccc(Cc2c(C(C)(C)C)nc3ccc(Br)cn23)c(C)c1,"inconclusive: 28.2 µM [inhibitor, single point]"
7,CCNC(=O)c1ccccc1NC(=O)c1cccc(S(=O)(=O)N2CCC(C)CC2)c1,"inconclusive: 8.91 µM [inhibitor, partial curve, poor fit]"
8,Nc1c(C(=O)CSc2nc3ccccc3o2)c(=O)[nH]c(=O)n1C1CC1,"inconclusive: 28.2 µM [inhibitor, single point]"
9,O=C(C1=C[C@H](c2ccccc2)C[C@H](OCc2ccc(CO)cc2)O1)N1CCN(Cc2ccccc2)CC1,"inconclusive: 28.2 µM [inhibitor, single point]"
10,CC(C)c1ccc2oc(-c3cc(NC(=O)c4cccnc4)ccc3Cl)nc2c1,"inconclusive: 11.2 µM [inhibitor, partial curve, poor fit]"
11,Cc1ccccc1S(=O)(=O)NC(=O)C1(C)CCN1C(=O)C1(c2ccc(Cl)cc2)CCC1 (configuration not stated),"inconclusive: 14.1 µM [inhibitor, partial curve, poor fit]"
12,CC(C)NC(=O)c1onc(CSc2ccc(C(C)C)cc2)c1C(=O)O,"inconclusive: 28.2 µM [inhibitor, single point]"
13,Cc1ccc(NCCCn2cnc3c(OCc4ccccc4)ncnc32)cc1C,"inconclusive: 12.6 µM [inhibitor, single point]"
14,O=[N+]([O-])c1ccccc1/C=N/N1CCN(Cc2ccccc2)CC1,"inconclusive: 28.2 µM [inhibitor, single point]"
15,Nc1ccccc1C(=O)NNC1=C(C(=O)C(F)(F)F)CCC1,"inconclusive: 2.24 µM [inhibitor, partial curve, poor fit]"
16,CCOc1ccc(S(=O)(=O)Nc2nc3ccccc3nc2-n2ccc(=NC(=O)c3ccccc3C)cc2)cc1,"inconclusive: 10 µM [inhibitor, partial curve, poor fit]"
17,O=C(NCCNc1nccc(C(F)(F)F)n1)c1cccc(C(F)(F)F)c1,"inconclusive: 12.6 µM [inhibitor, single point]"
18,CCOc1ccccc1NC(=O)NCc1noc2ccc(C)cc12,"inconclusive: 12.6 µM [inhibitor, single point]"
19,COc1ccc(N2CCN(C(=O)COC(=O)Cc3c(F)cccc3Cl)CC2)cc1,"inconclusive: 10 µM [inhibitor, partial curve]"

row,Structure (SMILES),Potency
1,Fc1ccc(C(c2ccc(F)cc2)N2CCN(C/C=C/c3ccccc3)CC2)cc1,"inconclusive: 22.4 µM [inhibitor, single point]"
2,CCOC(=O)c1ccc(NC(=O)c2nc[nH]c2C(=O)N[C@H](C)c2ccccc2)cc1,"inconclusive: 10 µM [inhibitor, single point]"
3,CN1CCc2c(c3ccccc3n2Cc2ccccc2)C1,"inconclusive: 28.2 µM [inhibitor, single point] and inconclusive: 20 µM [inhibitor, single point]"
4,COc1ccccc1CCn1cnc(Cc2ccccc2)c1C(C)C,"inconclusive: 15.8 µM [inhibitor, single point]"
5,O=C(OCC(=O)c1c[nH]c2ccccc12)c1cccc([N+](=O)[O-])c1,"inconclusive: 7.94 µM [inhibitor, partial curve, poor fit]"
6,CCOC(=O)[C@]12CCCC=C1N(CCC1=CCCCC1)C(=O)[C@H](CC(=O)NCC1CCCCC1)C2,"inconclusive: 14.1 µM [inhibitor, single point]"
7,O=C(Nc1cccc(F)c1)C1CCN(S(=O)(=O)c2ccc3[nH]c4c(c3c2)CCCCC4)CC1,"inconclusive: 11.2 µM [inhibitor, partial curve, poor fit]"
8,Cc1nn(C(C)C)c(C)c1CN1CCCC(C(=O)c2cccc(OC(C)C)c2)C1 (configuration not stated),"inconclusive: 12.6 µM [inhibitor, partial curve, poor fit]"
9,CC(C)(C)CC(=O)Nc1ccc(-c2nnc3n2CCCCC3)cc1,inactive
10,CCC(Cc1ccccc1)NS(=O)(=O)c1ccc2c(c1)NC(=O)CS2 (configuration not stated),"inconclusive: 10 µM [inhibitor, single point]"
11,CC(C)C[C@H](NC(=O)c1[nH]cnc1C(=O)N[C@@H](C)C(=O)OC(C)(C)C)C(=O)OC(C)(C)C,"inconclusive: 5.62 µM [inhibitor, full curve, poor fit]"
12,NS(=O)(=O)c1ccc(NC(=S)NC2CCCCCC2)cc1,"inconclusive: 1 µM [inhibitor, full curve, poor fit]"
13,CN(C)c1cccc(C(=O)OC(C(=O)Nc2ccc([N+](=O)[O-])cc2Br)c2ccccc2)c1 (configuration not stated),"inconclusive: 1.41 µM [inhibitor, partial curve, poor fit]"
14,Cc1ccc2c(c1)COc1c3ccc(C(=O)N4CCCCC4)cc3nn1-2,inactive
15,CC1=C(C(=O)OC2CCCCC2)C(c2ccc(C)o2)C2=C(CCCC2=O)N1 (configuration not stated),"inconclusive: 14.1 µM [inhibitor, partial curve, poor fit]"
16,Clc1ccc(-n2ncc3c(NCC4CCCO4)ncnc32)cc1 (configuration not stated),"inconclusive: 3.55 µM [inhibitor, partial curve, poor fit]"
17,COc1cc(NC(=O)c2cc(S(=O)(=O)N3CCC(C)CC3)cn2C)cc(OC)c1OC,inactive
18,Cc1cc(F)ccc1C(O)c1ncc(-c2ccc(Oc3ccccc3)cc2)[nH]1 (configuration not stated),"inconclusive: 22.4 µM [inhibitor, single point]"
